Several values for one entry are separate records, joined by “and”; a condition that tells them apart may be missing. Equal entries are not always repeated. ± gives the uncertainty stated by the source. In all, about 9,900 compounds were measured (“viability index relative to DMSO control”: median about 1, lowest 2% from about 0.85 on). This is one part of the list.

Results on 34 molecules are retold here after the supplement of paper PMC4723716.

For this assay, the system named is Plasmodium falciparum NF54 stage V gametocytes. Description: viability index relative to DMSO control (fraction); higher = less gametocyte killing. Conditions: 2.5 µM, incubation time: 72 h. An outline of the steps:
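Stage V gametocytes of P. falciparum NF54 were held in serum-free screening medium at 0.75% gametocytemia and 1.25% hematocrit, 10 µl per well of a 1,536-well plate, and exposed to compound at 2.5 µM for 72 hr at 37°C under low oxygen. A 3 µl mix of 2.5 µM MitoTracker Red CMXRos with 0.13% saponin was then added for one to two hours, after which one field per well was imaged and red particles of 20–70 µm2 were counted. The viability index equals this count divided by the plate mean from wells given solvent alone.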

Setting [1] is: library set: Broad Institute DOS.

For the molecule `Cc1noc(C)c1C(=O)N(C)C[C@@H]1OCc2ccccc2-c2ccccc2C(=O)N([C@H](C)CO)C[C@@H]1C`, the viability index under setting [1] was 0.938 ± 0.24. Molecule `Cc1noc(C)c1NC(=O)N1C[C@H](O)COC[C@H]2O[C@H](CC(=O)N3CCc4ccccc4C3)CC[C@@H]21` gave a viability index under setting [1] of 1.01 ± 0.11.

Take `CCCNC(=O)c1cc2c(c(-c3cccc(-c4cc5ccccc5o4)c3)n1)[C@@H](CCO)N(C(=O)NC(C)C)C2`: the viability index under setting [1] turned out to be 0.926 ± 0.08.

Under setting [1], `COC(=O)C[C@@H]1CC[C@H]2[C@@H](COC[C@H](O)CN2S(=O)(=O)c2cn(C)cn2)O1` yielded a viability index of 1.05 ± 0.047. Under setting [1], `c1cc(-c2ccc([C@H]3[C@H]4CNC[C@@H]3N4Cc3nccs3)cc2)ccn1` returned a viability index of 1.06 ± 0.059. Regarding `C[C@@H]1CCCCO[C@H](CN(C)S(=O)(=O)c2cn(C)cn2)[C@@H](C)CN([C@H](C)CO)C(=O)c2cc(NC(=O)Nc3cccc4ccccc34)ccc2O1`, under setting [1], the viability index amounted to 1.16 ± 0.045. `CO[C@H](CN(C)S(=O)(=O)c1cccc(Cl)c1)[C@@H](C)CN(C(=O)Nc1ccccc1F)[C@@H](C)CO` showed a viability index under setting [1] of 1.08 ± 0.019.

`C[C@H](NC(=O)C[C@@H]1CC[C@H]2[C@@H](COc3ccc(NC(=O)C4CCOCC4)cc3C(=O)N2C)O1)c1ccccc1` displayed a viability index under setting [1] of 1.19 ± 0.17. For `N#Cc1ccc(-c2ccc([C@@H]3[C@@H](CO)N4C(=O)CNC[C@@H]34)cc2)cc1`, the viability index under setting [1] is 1.01 ± 0.11. Take `NCC[C@H]1CC[C@H](NS(=O)(=O)c2ccc(Cl)cc2)[C@H](CO)O1`: the viability index under setting [1] is 0.803 and 1.11. In turn, `Cc1noc(C)c1S(=O)(=O)N(C)C[C@@H]1OCc2ccccc2-c2c(n(C)c3ccccc23)C(=O)N([C@H](C)CO)C[C@@H]1C` came in with a viability index under setting [1] of 0.953 ± 0.036.

In turn, `COCCNC(=O)C[C@H]1C[C@H]2c3cc(NC(=O)CN(C)C)ccc3O[C@H]2[C@@H](CO)O1` registered a viability index under setting [1] of 1.09 ± 0.04.

Under setting [1], `O=C(NCc1ccc(F)cc1)[C@@H]1[C@@H](CO)[C@@H]2Cn3c(cccc3=O)[C@@H]2N1C(=O)c1cccnc1` came in with a viability index of 1.05 ± 0.044. Still for that read-out and setting: under `C[C@H](CO)N1C[C@H](C)[C@@H](CN(C)C(=O)NC2CCCCC2)Oc2c(NC(=O)c3cnccn3)cccc2C1=O` stands 1.09 ± 0.059. The same measure, in the same setting: as for `Cc1noc(C)c1S(=O)(=O)N(C)C[C@H]1OCc2ccccc2-c2c(n(C)c3ccccc23)C(=O)N([C@H](C)CO)C[C@@H]1C`, the figure is 0.935 ± 0.045. With `C[C@H]1CN([C@@H](C)CO)C(=O)Cc2cc(NS(=O)(=O)c3ccc(Cl)cc3)ccc2O[C@@H]1CN(C)C(=O)Nc1ccc(C(F)(F)F)cc1`, the viability index under setting [1] worked out at 1.01 ± 0.025. Consider `CCCNC(=O)N1[C@H](C#N)[C@H](c2ccccc2-c2ccccc2F)[C@@H]1CO`, for which the viability index under setting [1] came to 1.04 ± 0.072. Regarding `C[C@H](NC(=O)[C@H]1[C@H](CO)[C@H]2Cn3c(cccc3=O)[C@H]2N1CCC(F)(F)F)c1ccccc1`, the viability index under setting [1] was found to be 1.05 ± 0.058. Molecule `N#C[C@@H]1[C@H](c2ccccc2-c2cccc(F)c2)[C@H](CO)N1C(=O)C1CC1` returned a viability index under setting [1] of 1.15 ± 0.046. Under setting [1], `OC[C@H]1[C@@H](c2ccccc2)C2(CN(Cc3nccs3)C2)N1CC1CCOCC1` showed a viability index of 1.02 ± 0.02.

`C[C@H](CO)N1C[C@H](C)[C@@H](CN(C)C(=O)[C@H](Cc2ccccc2)N(C)C)OCc2ccccc2-c2c(n(C)c3ccccc23)C1=O`: under setting [1], the viability index is 0.994 ± 0.068. On the same count and under the same terms, as for `CN1C(=O)c2cc(NS(=O)(=O)c3cccc(F)c3)ccc2OC[C@@H]2O[C@@H](CC(=O)NCCN3CCCCC3)CC[C@@H]21`, the figure is 0.913 ± 0.13; as for `CO[C@@H]1CN(C)C(=O)c2cc(NC(=O)CC(F)(F)F)ccc2OC[C@H](C)N(CC2CC2)C[C@@H]1C`, 1.008 ± 0.01. For the molecule `C[C@@H]1CN([C@@H](C)CO)C(=O)CCCn2nncc2CO[C@H]1CN(C)C(=O)CCC(F)(F)F`, under setting [1], the viability index came to 1.01 ± 0.036.

With `C[C@H](CO)N1C[C@H](C)[C@H](CN(C)Cc2ccc3c(c2)OCO3)OCCCC[C@H](C)Oc2ccc(NS(=O)(=O)c3cn(C)cn3)cc2C1=O`, under setting [1], the viability index was 1.08 ± 0.0099.

`COc1ccc(-c2ccccc2[C@H]2[C@@H](C#N)N(C(=O)C3CCC3)[C@H]2CO)cc1` showed a viability index under setting [1] of 1.09 ± 0.088. As for `CCCNC(=O)N1C[C@@]2(C1)CN([C@H](CO)c1[nH]c3cc(OC)ccc3c21)C(=O)NC1CCCC1`, under setting [1], the viability index was 0.9276 ± 0.0024. The molecule `COc1ccc2c3c([C@H](CO)N(Cc4ccc5OCOc5c4)C[C@]33CN(C3)C(=O)c3ccc4OCOc4c3)n(C)c2c1` yielded a viability index (library set: Broad Institute Blood Stage) of 0.435 ± 0.088.

Molecule `COCC(=O)N(C[C@H]1[C@H](c2ccccc2)[C@H](CO)N1C(=O)NC(C)C)C(C)C` displayed a viability index under setting [1] of 0.929 ± 0.011. The same measure, in the same setting: under `O=C(C1CCOCC1)N1CC(=O)N2[C@H](CO)[C@@H](c3ccc(C#CC4CCCCC4)cc3)[C@H]2C1` stands 1.1 ± 0.067; under `COc1ccc2c3c([C@@H](CO)N(C[C@]33CCN(CC3)C(=O)CN(C)C)C(=O)C3CC3)n(C)c2c1`, 0.9448 ± 0.0058.

The molecule `CS(=O)(=O)N1[C@@H]2Cn3c(cccc3=O)[C@H]1[C@@H](C(=O)NCc1ccc(F)cc1)[C@@H]2CO` registered a viability index under setting [1] of 1.03 ± 0.051. Under setting [1], `COc1cccc(C(=O)Nc2ccc3c(c2)C(=O)N(C)[C@H]2CC[C@H](CC(=O)Nc4ccc5c(c4)CCCC5)O[C@@H]2CO3)c1` came in with a viability index of 0.92 ± 0.09. Consider `CN1CCN(C(=O)C[C@@H]2CC[C@H]3[C@@H](COC[C@@H](O)CN3Cc3cccc(-c4ccncc4)c3)O2)CC1`, for which, under setting [1], the viability index turned out to be 1.1 ± 0.056.
